Some of the results follow. The energies were worked out here from pooled read counts, against the library average; single values are noisy.

This assay concerns the target T1, Pho4 (S. cerevisiae) (UniProt P07270).
T1 sequence: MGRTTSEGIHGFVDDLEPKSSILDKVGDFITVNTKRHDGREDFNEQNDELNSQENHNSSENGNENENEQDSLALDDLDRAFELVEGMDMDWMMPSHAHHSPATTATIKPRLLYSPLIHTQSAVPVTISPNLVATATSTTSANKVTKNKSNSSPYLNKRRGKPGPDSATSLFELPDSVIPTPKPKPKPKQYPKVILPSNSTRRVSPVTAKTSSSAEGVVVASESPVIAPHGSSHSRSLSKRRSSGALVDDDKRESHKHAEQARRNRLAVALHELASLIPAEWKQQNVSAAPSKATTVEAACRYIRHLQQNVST
The experiment in a line: relative binding free energy (BET-seq); higher = weaker binding. To be noted: reference: library average.
As to TGATGCACGTGGCGGT, the “relative binding free energy” value is -0.07 kcal/mol.

Regarding GAAAGCACGTGCGGGA, the “relative binding free energy” value was 0.08 kcal/mol.

GGTGGCACGTGATCTT: the “relative binding free energy” value was -0.07 kcal/mol.

On to TGAGTCACGTGGTGGG, for which the “relative binding free energy” value amounted to 0.08 kcal/mol.

On to ATATCCACGTGGGGGT, for which the “relative binding free energy” value was -0.23 kcal/mol.

For TGACTCACGTGGCGGG, the “relative binding free energy” value is 0.21 kcal/mol.

TGTGACACGTGCTCTG: the “relative binding free energy” value was found to be 0.08 kcal/mol.

In the case of TTGGACACGTGGCTAG, the “relative binding free energy” value is 0.08 kcal/mol.

For the sequence TAGTGCACGTGGAGGT, the “relative binding free energy” value is -0.02 kcal/mol.

For GGGGCCACGTGTCTTG, the “relative binding free energy” value is -0.05 kcal/mol.

Take AGTCGCACGTGGCGGT: the “relative binding free energy” value is -0.13 kcal/mol.

Take AACAGCACGTGTGGTT: the “relative binding free energy” value turned out to be 0.04 kcal/mol.

On to GGGAACACGTGTTAAT, for which the “relative binding free energy” value was 0.15 kcal/mol.

As for TTGCGCACGTGTTGTG, the “relative binding free energy” value is -0.09 kcal/mol.

As for TGTTGCACGTGGAAGG, the “relative binding free energy” value is -0.01 kcal/mol.

For TGGAACACGTGAGATT, the “relative binding free energy” value was found to be 0.35 kcal/mol.

In the case of TGTTCCACGTGGGATA, the “relative binding free energy” value is -0.15 kcal/mol.

With GGTTGCACGTGGAATT, the “relative binding free energy” value is 0.34 kcal/mol.

Regarding TGTTTCACGTGGGTAT, the “relative binding free energy” value is 0.2 kcal/mol.

On to CGTTTCACGTGGACGG, for which the “relative binding free energy” value was found to be 0.22 kcal/mol.

CTGATCACGTGGGTTC: the “relative binding free energy” value turned out to be 0.16 kcal/mol.

As for ACAGGCACGTGTGGGT, the “relative binding free energy” value was -0.07 kcal/mol.

Turning to AGATTCACGTGGAAAG, the “relative binding free energy” value was 0.37 kcal/mol.

Take GAATGCACGTGGTAAG: the “relative binding free energy” value is -0.03 kcal/mol.

Regarding GGTTTCACGTGCGTGT, the “relative binding free energy” value came out at 0.33 kcal/mol.

For TGATACACGTGAGGGT, the “relative binding free energy” value was 0.3 kcal/mol.

With TTTCGCACGTGGATGA, the “relative binding free energy” value was 0.01 kcal/mol.

GCTTGCACGTGTGAGT: the “relative binding free energy” value was determined as 0 kcal/mol.

On to GCAGGCACGTGATAGG, for which the “relative binding free energy” value is -0.08 kcal/mol.

Consider TTGTACACGTGCTTAT, for which the “relative binding free energy” value is -0.06 kcal/mol.

ATAGGCACGTGTAGAG: the “relative binding free energy” value was -0.03 kcal/mol.

Take TTGTCCACGTGGTTCG: the “relative binding free energy” value was -0.11 kcal/mol.

For CGGGGCACGTGTTTTA, the “relative binding free energy” value was determined as 0.01 kcal/mol.

For the sequence AGTTTCACGTGGATCG, the “relative binding free energy” value turned out to be 0.28 kcal/mol.

As for TTAAACACGTGTCATG, the “relative binding free energy” value worked out at 0.12 kcal/mol.

Consider TCGTGCACGTGAGTAT, for which the “relative binding free energy” value stood at 0.15 kcal/mol.

As for GTATGCACGTGGGCGT, the “relative binding free energy” value was -0.1 kcal/mol.

As for GGGTTCACGTGTTCTT, the “relative binding free energy” value is 0.22 kcal/mol.

In the case of AAGGACACGTGATTTG, the “relative binding free energy” value was 0.25 kcal/mol.

Take TTAGACACGTGGTTGG: the “relative binding free energy” value came out at 0.07 kcal/mol.

Regarding CTAATCACGTGAGGGT, the “relative binding free energy” value turned out to be 0.22 kcal/mol.

With GGCAGCACGTGTTAGG, the “relative binding free energy” value amounted to 0.01 kcal/mol.

For the sequence ATATGCACGTGTCGTG, the “relative binding free energy” value is -0.09 kcal/mol.

For the sequence TTGAGCACGTGAGTGG, the “relative binding free energy” value came out at 0.12 kcal/mol.

On to GTGTTCACGTGACGGA, for which the “relative binding free energy” value is 0.43 kcal/mol.

Take GGTCACACGTGTTTCG: the “relative binding free energy” value turned out to be 0.24 kcal/mol.

Take GAATACACGTGTAGAG: the “relative binding free energy” value worked out at 0.24 kcal/mol.

On to GTTATCACGTGTGTCT, for which the “relative binding free energy” value was determined as 0.22 kcal/mol.

In the case of GGGGCCACGTGGGCTG, the “relative binding free energy” value was -0.16 kcal/mol.

Regarding TTTGTCACGTGAAAGG, the “relative binding free energy” value is 0.39 kcal/mol.

As to GAGTTCACGTGAGGCT, the “relative binding free energy” value worked out at 0.5 kcal/mol.

TCGAACACGTGGGGTG: the “relative binding free energy” value is -0.21 kcal/mol.

On to TGCTTCACGTGCGTTT, for which the “relative binding free energy” value was 0.13 kcal/mol.

On to CATGGCACGTGGTATG, for which the “relative binding free energy” value was -0.22 kcal/mol.

Regarding AGTCGCACGTGGGCTG, the “relative binding free energy” value was -0.27 kcal/mol.

For GATTGCACGTGGGAGT, the “relative binding free energy” value is -0.04 kcal/mol.

Consider AGTATCACGTGATCGG, for which the “relative binding free energy” value is 0.09 kcal/mol.

For TGGATCACGTGGGGAA, the “relative binding free energy” value was found to be 0.11 kcal/mol.

On to TGGCACACGTGGCGGA, for which the “relative binding free energy” value was -0.02 kcal/mol.

As to GTGTGCACGTGAGTAC, the “relative binding free energy” value was found to be 0.15 kcal/mol.

Turning to GGCAGCACGTGAGCGG, the “relative binding free energy” value was determined as 0.15 kcal/mol.

As for GGATTCACGTGGTTGT, the “relative binding free energy” value was 0.3 kcal/mol.

For the sequence TAATTCACGTGTCAGG, the “relative binding free energy” value was 0.1 kcal/mol.

Turning to TATGGCACGTGTCTGT, the “relative binding free energy” value was -0.07 kcal/mol.

As to GGTCTCACGTGGAATG, the “relative binding free energy” value amounted to 0.26 kcal/mol.

Turning to TTATGCACGTGGTGCT, the “relative binding free energy” value was -0.16 kcal/mol.

Turning to TTCAGCACGTGATAGG, the “relative binding free energy” value was -0.09 kcal/mol.

With TGTAACACGTGGGTAT, the “relative binding free energy” value is -0.13 kcal/mol.

For the sequence TATCGCACGTGGGGTA, the “relative binding free energy” value is -0.26 kcal/mol.

In the case of TTTTGCACGTGCAGTT, the “relative binding free energy” value was -0.11 kcal/mol.

Regarding TTTGGCACGTGAAAGC, the “relative binding free energy” value is 0.2 kcal/mol.

For the sequence TAAAGCACGTGGTATT, the “relative binding free energy” value was -0.31 kcal/mol.

Turning to GATGTCACGTGATAGG, the “relative binding free energy” value worked out at 0.17 kcal/mol.

For the sequence ATAGGCACGTGTGCGC, the “relative binding free energy” value is -0.09 kcal/mol.

For the sequence TGAAGCACGTGGTAGT, the “relative binding free energy” value is -0.12 kcal/mol.

Consider ACAGGCACGTGGAGGG, for which the “relative binding free energy” value was -0.12 kcal/mol.

Consider TCGGTCACGTGGGTAT, for which the “relative binding free energy” value was -0.06 kcal/mol.

Turning to TTAAACACGTGCTGGT, the “relative binding free energy” value was -0.2 kcal/mol.

Turning to AGTATCACGTGCAATT, the “relative binding free energy” value amounted to 0.32 kcal/mol.

Consider GGGGCCACGTGGAATA, for which the “relative binding free energy” value turned out to be 0.14 kcal/mol.

In the case of TTGGTCACGTGTGGGC, the “relative binding free energy” value turned out to be 0.12 kcal/mol.

For the sequence ACTGTCACGTGTTGAG, the “relative binding free energy” value is 0.16 kcal/mol.

With GAGGCCACGTGAAGGG, the “relative binding free energy” value amounted to 0.19 kcal/mol.

As to GGTGTCACGTGGAACT, the “relative binding free energy” value was 0.24 kcal/mol.

On to TTGAACACGTGAGGGT, for which the “relative binding free energy” value was 0.34 kcal/mol.

TGGTACACGTGAATTA: the “relative binding free energy” value came out at 0.15 kcal/mol.

For TAGTTCACGTGTTGGC, the “relative binding free energy” value came to 0.24 kcal/mol.

Regarding AGTATCACGTGGAGGC, the “relative binding free energy” value was determined as 0.12 kcal/mol.

Regarding CGATTCACGTGGTGTT, the “relative binding free energy” value came out at 0.21 kcal/mol.

As to GTTAGCACGTGCTCGT, the “relative binding free energy” value is -0.11 kcal/mol.

For CAGGGCACGTGTATGG, the “relative binding free energy” value was -0.12 kcal/mol.

Consider TTTCTCACGTGTAATG, for which the “relative binding free energy” value amounted to 0.37 kcal/mol.

For the sequence TTTAGCACGTGGTGGC, the “relative binding free energy” value is -0.21 kcal/mol.

On to TAGCGCACGTGGGTCA, for which the “relative binding free energy” value is -0.27 kcal/mol.

As to GTATGCACGTGTGGAA, the “relative binding free energy” value worked out at 0.05 kcal/mol.

As for TTAATCACGTGGTGTA, the “relative binding free energy” value is 0.04 kcal/mol.

As for GTTATCACGTGAATTA, the “relative binding free energy” value worked out at 0.35 kcal/mol.

Turning to GTGGCCACGTGACGGG, the “relative binding free energy” value amounted to 0.05 kcal/mol.

On to TTATGCACGTGATGGT, for which the “relative binding free energy” value is -0.01 kcal/mol.

Consider CGTAGCACGTGGCGGG, for which the “relative binding free energy” value was -0.23 kcal/mol.

Turning to GGAAGCACGTGTTAGG, the “relative binding free energy” value was -0.04 kcal/mol.

Turning to TGTATCACGTGGTTCG, the “relative binding free energy” value was -0.07 kcal/mol.

As to GGGGTCACGTGCGTGA, the “relative binding free energy” value amounted to 0.05 kcal/mol.

Regarding GATTGCACGTGGGATA, the “relative binding free energy” value is -0.18 kcal/mol.

As for TTGGTCACGTGGTGCT, the “relative binding free energy” value is -0.06 kcal/mol.

ATGGTCACGTGATGCT: the “relative binding free energy” value is 0.21 kcal/mol.

GAGGGCACGTGTGCTA: the “relative binding free energy” value turned out to be 0.05 kcal/mol.

In the case of GTCGTCACGTGGTTAG, the “relative binding free energy” value is 0.12 kcal/mol.

As to GTAAACACGTGCGTGT, the “relative binding free energy” value turned out to be 0.11 kcal/mol.

As for CGTGGCACGTGAGCAT, the “relative binding free energy” value was 0.14 kcal/mol.

On to GGTGACACGTGATAAG, for which the “relative binding free energy” value came to 0.11 kcal/mol.

For the sequence ATAGGCACGTGGAGTG, the “relative binding free energy” value was -0.11 kcal/mol.

Take TTGGCCACGTGCGGTT: the “relative binding free energy” value is -0.18 kcal/mol.

With GTGGGCACGTGTAGCG, the “relative binding free energy” value is -0.15 kcal/mol.

AGTTACACGTGAGGTA: the “relative binding free energy” value is 0.25 kcal/mol.
